# Measured values as given in article PMC4336329 (PLoS ONE, 2015).
# About 2,200 (0.71%) of roughly 310,000 compounds showed an effect of 50% or more. The effect is printed as a negative number. The list shows a part of the results.
# Biological target: human ether-à-go-go-related gene (hERG) potassium channel (human, UniProt Q12809)
# Assay: primary screen, population patch clamp on CHO cells stably expressing hERG
# Chain of human ether-à-go-go-related gene (hERG) potassium channel (Q12809 whole entry, looked up): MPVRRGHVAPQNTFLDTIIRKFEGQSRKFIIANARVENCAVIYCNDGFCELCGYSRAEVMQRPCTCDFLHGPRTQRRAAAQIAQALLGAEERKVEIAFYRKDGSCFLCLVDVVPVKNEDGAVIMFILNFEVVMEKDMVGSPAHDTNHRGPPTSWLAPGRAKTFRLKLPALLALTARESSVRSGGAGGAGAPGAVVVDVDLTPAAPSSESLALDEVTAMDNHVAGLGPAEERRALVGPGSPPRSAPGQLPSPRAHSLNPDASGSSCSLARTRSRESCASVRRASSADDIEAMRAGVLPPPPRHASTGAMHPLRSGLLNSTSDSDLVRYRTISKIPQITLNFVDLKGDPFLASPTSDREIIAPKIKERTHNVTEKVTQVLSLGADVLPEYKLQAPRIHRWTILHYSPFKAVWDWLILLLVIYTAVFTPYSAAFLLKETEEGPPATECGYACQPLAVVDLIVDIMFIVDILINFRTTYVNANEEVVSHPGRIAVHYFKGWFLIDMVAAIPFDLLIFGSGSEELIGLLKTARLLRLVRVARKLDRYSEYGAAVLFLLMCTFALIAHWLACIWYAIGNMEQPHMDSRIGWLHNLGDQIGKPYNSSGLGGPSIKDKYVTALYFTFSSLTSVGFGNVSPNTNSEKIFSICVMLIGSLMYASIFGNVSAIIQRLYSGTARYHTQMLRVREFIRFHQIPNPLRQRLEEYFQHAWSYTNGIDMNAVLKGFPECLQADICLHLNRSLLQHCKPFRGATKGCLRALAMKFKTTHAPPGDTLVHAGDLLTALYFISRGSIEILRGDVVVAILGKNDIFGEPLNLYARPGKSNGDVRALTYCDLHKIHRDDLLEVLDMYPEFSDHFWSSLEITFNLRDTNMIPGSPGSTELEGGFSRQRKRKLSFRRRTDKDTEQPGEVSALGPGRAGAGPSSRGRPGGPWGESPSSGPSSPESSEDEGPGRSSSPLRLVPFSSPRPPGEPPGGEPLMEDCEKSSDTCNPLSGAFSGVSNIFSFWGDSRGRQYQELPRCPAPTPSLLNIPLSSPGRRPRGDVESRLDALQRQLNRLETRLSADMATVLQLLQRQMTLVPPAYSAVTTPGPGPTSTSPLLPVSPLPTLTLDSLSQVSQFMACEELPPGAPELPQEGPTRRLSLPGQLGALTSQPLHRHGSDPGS
row,Structure (SMILES),"hERG current change (%, negative = inhibition) at 1uM [%]"
1,Cc1cccc(C(=O)N2CCN=C2SCc2ccc([N+](=O)[O-])cc2)c1,-20.8
2,O=c1c(Cc2ccc(F)cc2)c(O)ccn1C1CCCCC1,1.07
3,CC(C)c1ccc(CNC(=O)CCc2ccccc2)cc1,7.63
4,COc1cccc(CN(C(=O)c2ccco2)C2CCS(=O)(=O)C2)c1 (stereo not shown),6.03
5,COc1cccc(OCC(=O)NNC(=O)C(=O)Nc2ccc(OC)cc2OC)c1,8.1
6,COc1cc2c(cc1OC)C1=CC(=O)C(=O)N1C(C)(C)C2,13.3
7,COc1ccc(C(=O)N/N=C(\C)CC(=O)Nc2ccc3c(c2)OCO3)cc1,1.77
8,O=c1c(C(c2ccc(F)cc2)c2c(O)nc3n(c2=O)CCS3)c(O)nc2n1CCS2,9.15
9,NC(=O)Cn1nc(-c2ccccc2)nc1-c1ccccc1,13.6
10,Cc1ccc(CNC(=O)C(C)C2Sc3ccccc3NC2=O)cc1 (stereo not shown),10.2
11,CC(c1ccccc1)C1CC(=O)N(Cc2ccccc2)C1=O (stereo not shown),6.38
12,CCOC(=O)c1c(C=O)c(C)n(Cc2ccc(C)cc2)c1C,17.6
13,Cc1ccccc1CO/N=C/c1[nH]ncc1Br,8.84
14,Cc1cc(OCC(=O)NCc2cccnc2)c2c(C)cc(=O)oc2c1,-2.33
15,COC(=O)C1CSC(C(=O)OC)N1C(=O)Nc1ccc(Cl)c(Cl)c1 (stereo not shown),7.39
16,COCc1cc(CN(C)C(=O)C2CCC(=O)N(Cc3cccc(OC)c3)C2)[nH]n1 (stereo not shown),11.9
17,CCOC(=O)c1c(C)[nH]c(C(=O)OCC(=O)Nc2cc(C)nn2-c2ccccc2)c1C,8.06
18,COc1ncccc1C(=O)N1CCCC(N2CCN(c3ccc(F)cc3)CC2)C1 (stereo not shown),-11.1
19,O=C(CC12CC3CC(CC(C3)C1)C2)NC(=S)Nc1ccc(CN2CCOCC2)cc1,0.574
20,COc1ccc(-c2cn3nc(SCC(=O)NC4CCCCC4)ccc3n2)cc1,16.3
21,O=C1NC(=O)N(c2ccc3c(c2)OCO3)C(=O)/C1=C/c1ccc(N2CCCC2)o1,9.37
22,Cc1ccc(NC(=O)C(=O)NCC2CCCN2S(=O)(=O)c2cccs2)cc1 (stereo not shown),9.03
23,COc1ccc(OCCCC(=O)OCC(=O)Nc2ccc(Cl)cn2)cc1,8.56
24,Cn1c(/C(C#N)=C/c2cccc(O)c2)nc2ccccc21,13
25,COc1c(Cl)cc(-c2noc(C)c2C(=O)NC(C)C)cc1Cl,8.81
26,COC1CCCCC1Nc1cccc(SC)c1 (stereo not shown),10.1
27,Cc1cc(C)c(C(=O)NC2CCCc3c2cnn3-c2cccc(C)c2C)o1 (stereo not shown),4.8
28,N#CCSc1nc2c(cc1C#N)CCCCCC2,16

row,Structure (SMILES),"hERG current change (%, negative = inhibition) at 1uM [%]"
1,Cc1cc(=O)oc(C)c1C(=O)NC1CC(C)(C)NC(C)(C)C1,14.8
2,CCCCOc1ccc(CNC(=O)NS(=O)(=O)c2ccc(OCC(C)C)cc2)cc1,-2.25
3,O=C(CCCc1ccccc1)NCc1ccc2c(c1)OCO2,8.58
4,COC(=O)[C@@H](Cc1ccccc1)NC(=O)[C@H]1CCC(=O)N1C(=O)OCc1ccccc1,7.85
5,COc1ccc(C(=O)CSc2nnc(-c3ccc(S(=O)(=O)N4CCOCC4)cc3)o2)cc1,6.38
6,Cc1ccccc1CN1CCN(C(=O)c2ccco2)CC1.O=C(O)C(=O)O,10.1
7,COc1ccc2c(c1OC)C(=O)N1c3ccccc3C(=O)N(c3ccccc3)C21 (stereo not shown),5.08
8,COc1cc(C(=O)N/N=C(\Cc2ncc[nH]2)c2ccccc2)cc(OC)c1OC,-15.4
9,CS(=O)(=O)c1ccc2nc(NC(=O)CCS(=O)(=O)c3ccccc3)sc2c1,15.6
10,CCOC(=O)C1CCN(c2c(NCCN3CCN(c4ccccc4)CC3)c(=O)c2=O)CC1,11.5
11,CCN(CC)C(=O)COc1ccc(/C(C)=N/NC(=O)c2ccccc2Br)cc1,7.48
12,CCN(CC)S(=O)(=O)c1cc(NC(=O)CCNC(=O)c2ccccc2Cl)ccc1C,10.7
13,Cc1ccc(SCC(=O)OCC(=O)N(CC(C)C)C2CCS(=O)(=O)C2)cc1C (stereo not shown),3.11
14,Cn1c(C(=O)NCc2ccc3c(c2)OCO3)cc2sccc21,8.55
15,CC(C)CCNC(=O)c1cc2c(=O)n3ccccc3nc2s1,11.4
16,CC1CCN(C(=O)c2nc[nH]c2C(=O)N2CCc3ccccc3C2)CC1,12.6
17,CC(C)C(OC(=O)CN1C(=O)c2ccccc2C1=O)C(=O)NC1CCCCC1 (stereo not shown),14.9
18,O=C(CCc1ccccc1)Nc1ccnn1C1CCN(Cc2ccc(OCCO)cc2)CC1,-9.11
19,COc1ccc(C([O-])=Nc2ccc[n+](-c3nc4ccccc4nc3NS(=O)(=O)c3ccccc3)c2)cc1,11.9
20,COc1ccc(CCn2c(C)cc(C(=O)CSc3nnc(N)s3)c2C)cc1,5.57
21,CC(C)c1nc2c(c(=O)c3ccccc3n2C)c(=O)n1-c1ccc(F)cc1,1.11
22,CC(=O)NCCn1c(SCC(=O)NCCC2=CCCCC2)nc2ccccc2c1=O,-11.4
23,Cc1nc2cc(NC(=O)NCc3ccco3)ccc2o1,16.3
24,Cc1ccc(C)c(NC(=S)N(C)CCc2ccccn2)c1,11.5
25,CC(=O)Nc1ccc(C(=O)OCC(=O)c2ccc(C)c([N+](=O)[O-])c2)cc1,9.37
26,O=C(Nc1ccc2ccccc2c1)/C(=C/c1cccc(Br)c1)NC(=O)c1ccco1,-17.8
27,O=C(O)c1ccc(-n2nnnc2SCc2ccccc2Br)cc1,12
